From PubChem BioAssay AID1347165 (National Center for Advancing Translational Sciences (NCATS), 2019)
Among all 220,000 compounds or so, about 5,700 (2.6%) were called active. The inconclusive results got no clear call from the source; some entries with a clear call stand among them for comparison. Calls come from the whole dose curve; as a rule, active = well fitted inhibition curve with a large enough effect; inconclusive = small, poorly fitted or top-dose-only effect; inactive = no such curve, though single readings can be large or run the other way. Potencies of inconclusive entries are doubtful fits and often do not repeat.
Note: nearly all actives have a fitted effect of over 70% in size.
Potency is the fitted concentration of half-maximal effect; tags give direction and shape of the fitted curve.

What follows are compounds tested against Lysine-specific demethylase 5B (Homo sapiens) (UniProt Q9UGL1) (assay: Primary screen for KDM5B Histone Demethylases FDH-coupled qHTS). Details: FDH-coupled NADH fluorescence (FDH is formaldehyde dehydrogenase); series mostly up to 57.7 µM.
Chain of UniProt Q9UGL1 (Q9UGL1 whole entry, looked up): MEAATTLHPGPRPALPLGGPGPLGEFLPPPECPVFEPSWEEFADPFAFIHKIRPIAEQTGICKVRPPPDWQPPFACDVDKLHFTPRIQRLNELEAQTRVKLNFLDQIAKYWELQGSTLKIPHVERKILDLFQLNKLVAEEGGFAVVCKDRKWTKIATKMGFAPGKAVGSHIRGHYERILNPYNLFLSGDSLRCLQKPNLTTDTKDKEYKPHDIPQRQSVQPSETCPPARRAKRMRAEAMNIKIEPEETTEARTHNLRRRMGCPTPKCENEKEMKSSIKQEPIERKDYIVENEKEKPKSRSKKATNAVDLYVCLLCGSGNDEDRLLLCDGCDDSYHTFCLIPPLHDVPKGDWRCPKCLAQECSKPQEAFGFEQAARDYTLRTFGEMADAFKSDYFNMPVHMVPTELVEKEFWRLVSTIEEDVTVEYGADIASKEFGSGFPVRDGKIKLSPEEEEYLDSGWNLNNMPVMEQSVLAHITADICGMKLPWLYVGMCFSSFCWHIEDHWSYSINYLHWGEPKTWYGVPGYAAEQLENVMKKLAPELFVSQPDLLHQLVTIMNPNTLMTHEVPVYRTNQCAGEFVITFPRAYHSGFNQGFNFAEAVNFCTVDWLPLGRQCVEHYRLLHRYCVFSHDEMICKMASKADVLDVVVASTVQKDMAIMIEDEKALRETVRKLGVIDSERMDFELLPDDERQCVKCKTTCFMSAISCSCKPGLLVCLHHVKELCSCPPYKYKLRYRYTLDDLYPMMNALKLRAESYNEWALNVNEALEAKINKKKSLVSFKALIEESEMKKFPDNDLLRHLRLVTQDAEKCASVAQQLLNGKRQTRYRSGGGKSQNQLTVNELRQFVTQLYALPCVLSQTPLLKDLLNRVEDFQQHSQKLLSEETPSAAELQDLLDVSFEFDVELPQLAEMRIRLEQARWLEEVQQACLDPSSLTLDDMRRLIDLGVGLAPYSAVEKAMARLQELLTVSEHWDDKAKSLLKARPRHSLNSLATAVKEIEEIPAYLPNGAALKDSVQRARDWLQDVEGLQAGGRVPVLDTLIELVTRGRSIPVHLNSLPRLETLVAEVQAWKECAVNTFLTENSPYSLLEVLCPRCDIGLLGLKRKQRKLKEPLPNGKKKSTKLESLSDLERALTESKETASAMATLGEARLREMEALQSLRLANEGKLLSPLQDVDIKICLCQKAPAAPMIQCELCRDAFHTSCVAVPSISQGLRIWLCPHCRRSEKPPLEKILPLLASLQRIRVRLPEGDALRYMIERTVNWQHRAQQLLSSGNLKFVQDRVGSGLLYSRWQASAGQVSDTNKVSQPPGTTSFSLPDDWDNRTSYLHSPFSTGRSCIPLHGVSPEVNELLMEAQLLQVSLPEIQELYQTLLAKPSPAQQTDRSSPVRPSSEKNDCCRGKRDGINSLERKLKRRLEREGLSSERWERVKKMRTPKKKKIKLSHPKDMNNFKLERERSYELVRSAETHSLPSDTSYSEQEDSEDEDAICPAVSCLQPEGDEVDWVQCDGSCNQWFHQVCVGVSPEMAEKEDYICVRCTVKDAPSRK
In short: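 Coupled FDH/NAD⁺ fluorescence readout. KDM5BΔAP 200 nM final; compound titration, 10 min RT preincubation; substrate mix 12.5 µM H3K4me3, 25 µM 2-OG, 50 µM Fe(II), 100 µM ascorbate, 0.25 mM NAD⁺, 0.25 U/mL FDH; ΔRFU over 30 min.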
In the case of `O=C(Cn1ccn2nc(-c3ccccc3)c(CO)c2c1=O)Nc1ccc(Br)cc1`, the Potency is reported as inconclusive: 15.8 µM [inhibitor, partial curve].
For `Cc1cccc(N(C)S(=O)(=O)c2c(-c3cccc(F)c3)csc2C(=O)NCc2ccccn2)c1`, the Potency was “inactive”.
`O=C(O)COc1ccc(-c2nccc3c2C(=O)N(Cc2ccccc2)CC(COc2ccc4cccnc4c2)O3)cc1` (configuration not stated) was tested, and the Potency was inconclusive: 28.2 µM [inhibitor, partial curve].
With `COc1ccc(C(=O)N2CCC(C(=O)N3CCCCCCNC(=O)CC3)CC2)cc1F` the Potency was “inactive”.
With `O=C(NC1CCN(c2cc(-c3cccs3)[nH]n2)C1)c1cccc(Br)c1` (configuration not stated) the Potency was active: 7.94 µM.
In the case of `CCCc1ncncc1C(=O)N(CCO)Cc1nccn1C`, the Potency is reported as inconclusive: 14.1 µM [inhibitor, single point].
In the case of `CCC(C(=O)NCc1nnc2c(-c3nc(C4CC4)no3)cccn12)c1ccccc1` (configuration not stated), the Potency is reported as active: 31.6 µM.
`CCN1CCCC12Cc1ccccc1CN(C(C)=O)C2` (configuration not stated) was tested, and the Potency was inconclusive: 112 µM [inhibitor, partial curve, poor fit].
In the case of `CC1CCCC(N2CCN(Cc3cccc(Cl)c3)CC2)C1` (configuration not stated), the Potency is reported as inconclusive: 10 µM [inhibitor, partial curve, poor fit].
With `CCOc1cc(C=O)cc(Br)c1OCc1cccc(C)c1` the Potency was “inactive”.
`Cc1nc2c(-c3ccccc3)c(C)nn2c(C)c1CCC(=O)NCc1ccccc1Cl` was tested, and the Potency was inconclusive: 28.2 µM [inhibitor, partial curve, poor fit].
With `Cc1cc(C(=O)COC(=O)c2nccnc2N)c(C)n1C1CC1` the Potency was inconclusive: 39.8 µM [inhibitor, single point].
`Cc1ccccc1NC(=O)CCc1ccnc(N2CCCC2)c1` was tested, and the Potency was active: 28.2 µM.
With `CC(C)N1CCC(F)(c2nc(-c3ccccc3)no2)CC1` the Potency was “inactive”.
With `Cc1ccc2nc(/C(C#N)=C\c3cccc(OCc4ccc(F)cc4)c3)[nH]c2c1` the Potency was inconclusive: 15.8 µM [inhibitor, single point].
`CCc1noc(CN2CCC3(CC2)CC(=O)N(CCCc2ccccc2)C3)n1` was tested, and the Potency was inconclusive: 28.2 µM [inhibitor, single point].
In the case of `Cc1cccc(-n2c(C)c(C)c3c2ncn2nc(-c4ccncc4)nc32)c1C`, the Potency is reported as inconclusive: 39.8 µM [inhibitor, single point].
In the case of `C=CCN1CCN(C(=O)C2CCCN(Cc3ccncc3)CCC(=O)NCC2)CC1` (configuration not stated), the Potency is reported as inconclusive: 14.1 µM [inhibitor, partial curve, poor fit].
With `Cc1ccc(CSc2nc3cccnc3n2Cc2ccc(C(=O)NCCc3ccccc3)cc2)cc1` the Potency was inconclusive: 35.5 µM [inhibitor, partial curve, poor fit].
`Cc1nc2ccc(C(=O)OCc3ccccn3)cc2nc1C` was tested, and the Potency was “inactive”.
In the case of `FC(F)(F)c1ccccc1C(c1ccccc1)N1CCCNCC1` (configuration not stated), the Potency is reported as inconclusive: 25.1 µM [inhibitor, partial curve, poor fit].
In the case of `COc1ccc(C)cc1S(=O)(=O)[C@H]1CS(=O)(=O)C[C@@H]1NCc1ccccn1`, the Potency is reported as “inactive”.
For `CCCC(=O)Nc1ccc(Cl)c(-c2nc3ncccc3o2)c1`, the Potency was inconclusive: 35.5 µM [inhibitor, partial curve, poor fit].
For `CC1=C[C@@H](CNC(=O)c2cnccn2)[C@H](C(C)C)C[C@H]1Cc1nnc(-c2ccccc2F)o1`, the Potency was inconclusive: 14.1 µM [inhibitor, partial curve, poor fit].
For `CC(C)n1cc2cc(C(=O)N3CCN(c4ccc(F)cc4)CC3)sc2c1`, the Potency was inconclusive: 11.2 µM [inhibitor, partial curve].
In the case of `COc1cc(F)ccc1-c1ccc2ncn(C3CC3)c(=O)c2n1`, the Potency is reported as active: 31.6 µM.
For `O=[N+]([O-])/C(=C(\Sc1ccc(Cl)cc1)c1ccccc1)c1ccccc1`, the Potency was “inactive”.
In the case of `Cc1ccc(COc2ccc(C3C(C#N)=C(N)Oc4cc(O)ccc43)cc2)cc1` (configuration not stated), the Potency is reported as inconclusive: 31.6 µM [inhibitor, single point].
In the case of `COc1ccc(NC(=O)CCS(=O)(=O)c2cccc3nonc23)cc1Cl`, the Potency is reported as inconclusive: 2.51 µM [inhibitor, full curve, poor fit].
For `Cc1ccc(CNC(=O)CN(C)C(=O)c2ccc3c(c2)nnn3C)cc1`, the Potency was “inactive”.
With `Cc1ccc(CSCc2ccc(C(=O)NCCc3ccc(Cl)cc3)o2)cc1` the Potency was inconclusive: 31.6 µM [inhibitor, single point].
With `CC(NC(=O)c1ccc(Br)o1)c1ccc(S(N)(=O)=O)cc1` (configuration not stated) the Potency was “inactive”.
For `Cc1ccc(C(=O)COC(=O)c2cc3ccccc3oc2=O)cc1C`, the Potency was “inactive”.
For `Cc1noc(C)c1S(=O)(=O)Nc1cccc(C(F)(F)F)c1`, the Potency was “inactive”.
With `CCCCN1CCN(C(=O)c2cc(-c3ccncc3)nc3c(C)c(C)ccc23)CC1` the Potency was inconclusive: 7.94 µM [inhibitor, full curve, poor fit].
In the case of `O=C(O)c1ccnc(-c2ccnc(NCCCN3CCCC3=O)n2)c1`, the Potency is reported as inconclusive: 25.1 µM [inhibitor, partial curve, poor fit].
With `CCCCC(=O)Oc1ccc2c(C)cc(=O)oc2c1` the Potency was “inactive”.
With `COC(=O)c1ccc(CN2C(=O)[C@@H]3C[C@@H](O)CN3C3(CN(Cc4ccc(OC)c5ccccc45)C3)C2=O)cc1` the Potency was inconclusive: 28.2 µM [inhibitor, partial curve, poor fit].
With `O=C(NCc1nnc2c(-c3nc(C4CC4)no3)cccn12)c1ccc2ccccc2n1` the Potency was “inactive”.
For `F[C@@H]1CN(Cc2nccs2)C[C@@H]1OCc1nc2ccncc2[nH]1`, the Potency was “inactive”.
`CCCc1c(C(=O)OCC)[nH]c2c1C(=O)CC(c1ccc(CC)cc1)C2` (configuration not stated) was tested, and the Potency was “inactive”.
For `CCNC(C(=O)OCC)c1ccc(Cl)cc1` (configuration not stated), the Potency was “inactive”.
With `CN1CCN(C(=O)c2cc(Br)cn2C)CC1` the Potency was “inactive”.
For `COCCN1CCCCCC(O)c2cc(C(=O)NCCCc3ccccc3)ccc21` (configuration not stated), the Potency was inconclusive: 22.4 µM [inhibitor, partial curve, poor fit].
In the case of `Cc1ncc2n1C(=O)N(C1CCN(Cc3cccc4ccccc34)CC1)C2`, the Potency is reported as inconclusive: 25.1 µM [inhibitor, single point].
`Cc1cc(Cl)ccc1-n1nc(C)c([C@@H]2C=C[C@@H](NC(=O)CCC(=O)O)C2)c1C` was tested, and the Potency was “inactive”.
`CCN(c1ccccc1)S(=O)(=O)c1ccc(C(=O)OC2CCCCC2=O)cc1` (configuration not stated) was tested, and the Potency was “inactive”.
With `Fc1ccc(/C=C2\CCCC3=C2N=C2SC=C(c4ccc(F)cc4)N2C3c2ccc(F)cc2)cc1` (configuration not stated) the Potency was inconclusive: 31.6 µM [inhibitor, partial curve, poor fit].
`Cc1cccc(NC(=O)CSc2nc(-c3ccccc3)cn2-c2ccccc2)c1C` was tested, and the Potency was inconclusive: 28.2 µM [inhibitor, single point].
With `Cc1ccc(C)c(-n2c(CCC(=O)O)ccc2-c2ccc(Cl)cc2)c1` the Potency was inconclusive: 15.8 µM [inhibitor, partial curve, poor fit].
With `COc1ccc(C(=O)NC(=S)NNC(=O)c2ccc3ccccc3n2)cc1` the Potency was inconclusive: 12.6 µM [inhibitor, partial curve, poor fit].
In the case of `COc1ccc(Nc2ncc(C(=O)N3CCN(c4cccc(Cl)c4)CC3)c3ccccc23)cc1`, the Potency is reported as inconclusive: 25.1 µM [inhibitor, partial curve, poor fit].
In the case of `CC(C)NC(=O)NC(=O)COC(=O)c1cc2c(s1)CCC2`, the Potency is reported as inconclusive: 22.4 µM [inhibitor, partial curve, poor fit].
With `COCCn1ccc2c(OCC(=O)Nc3cccc(OC)c3)cccc2c1=O` the Potency was inconclusive: 15.8 µM [inhibitor, partial curve, poor fit].
In the case of `CN(C)CCCN(Cc1cccc2ccccc12)Cc1cccc2ccccc12`, the Potency is reported as inconclusive: 35.5 µM [inhibitor, partial curve, poor fit].
`CC(C)c1nc2c(c(-c3ccc(Cl)cc3)n1)CCN(Cc1ccc(C#N)cc1)CC2` was tested, and the Potency was inconclusive: 44.7 µM [inhibitor, partial curve].
With `COc1ccc(Cl)cc1C(=O)NC1CCN(c2cc(-c3ccc(F)cc3)[nH]n2)C1` (configuration not stated) the Potency was inconclusive: 4.47 µM [inhibitor, full curve].
With `Cn1c(=O)c2c(-c3ccccc3Cl)n(-c3cc(Cl)ccc3O)cc2n(C)c1=O` the Potency was inconclusive: 28.2 µM [inhibitor, partial curve, poor fit].
With `CCc1nnc2sc(-c3ccc(NC(=O)C(C)(C)C)cc3)nn12` the Potency was “inactive”.
`Nc1nnnn1CC(=O)N/N=C/c1ccccn1` was tested, and the Potency was inconclusive: 22.4 µM [inhibitor, single point].
In the case of `Clc1cc(Cl)cc(Nc2ncnc(-n3cccc3)n2)c1`, the Potency is reported as inconclusive: 22.4 µM [inhibitor, partial curve, poor fit].
In the case of `CCCCCC(O)(c1ccccc1)C(CN1CCOCC1)c1ccccc1` (configuration not stated), the Potency is reported as inconclusive: 39.8 µM [inhibitor, single point].
With `COc1ccc(O)c(C(=O)/C=C/c2ccc(C)cc2)c1` the Potency was inconclusive: 31.6 µM [inhibitor, partial curve, poor fit].
With `COc1ccc(C(C)NC(=O)c2cc(NC(C)=O)cc3nc(C)ccc23)cc1` (configuration not stated) the Potency was inconclusive: 12.6 µM [inhibitor, partial curve].
With `CCC(C(=O)NCc1c(C)ncc2c1CCNC2)n1cccn1` (configuration not stated) the Potency was inconclusive: 28.2 µM [inhibitor, partial curve, poor fit].
With `Cc1nn(-c2ccccc2)c2sc(C(=O)NC3CCN(Cc4ccccc4)CC3)cc12` the Potency was inconclusive: 8.91 µM [inhibitor, partial curve, poor fit].
With `COC(=O)C(C)N1C(=O)S/C(=C/c2cn(CC(N)=O)c3ccccc23)C1=O` (configuration not stated) the Potency was “inactive”.
